One assay deals with HSkMC. Description: cytotoxicity call (relative viability < 0.9). To be noted: 10 µM.
Another assay relates to HepG2. Nature of the assay: cytotoxicity call (relative viability < 0.9). To be noted: 10 µM.
The test system of the next assay is S. aureus RN4220. Nature of the assay: growth inhibition call (relative growth <= 0.2). The conditions noted are these: 50 µM.

The list shows a part of the results.

Take `N=c1c(C(N)=S)cnc2ccccn12`: the cytotoxicity call with HSkMC and in the assay with HepG2 was “inactive” in each case. Moreover, the growth inhibition call in the assay with S. aureus RN4220 was “inactive”.

On to `NC(=O)N1Cc2nccn2C[C@H](Cn2cncn2)C1`, for which the cytotoxicity call in the assay on HSkMC and with HepG2 was “inactive” throughout. In addition, the growth inhibition call with S. aureus RN4220 is “inactive”.

On to `C[C@H](CO)N1C[C@H](C)[C@H](CN(C)C(=O)CCCN(C)C)OCCCC[C@H](C)Oc2ccc(NS(C)(=O)=O)cc2C1=O`, for which the cytotoxicity call with HSkMC and with HepG2 was “inactive” each time. The growth inhibition call with S. aureus RN4220 is “inactive”.

`COc1cccc(S(=O)(=O)N(C)C[C@@H]2Oc3ncc(Br)cc3C(=O)N([C@H](C)CO)C[C@@H]2C)c1`: the cytotoxicity call with HSkMC and with HepG2 was “inactive” in each case. For the same compound, the growth inhibition call in the assay with S. aureus RN4220 is “inactive”.

As for `C[C@H](O)C#Cc1ccc2c(c1)O[C@H](CN(C)C(=O)Cc1ccccn1)[C@@H](C)CN([C@@H](C)CO)S2(=O)=O`, the cytotoxicity call in the assay with HSkMC and in the assay on HepG2 was “inactive” throughout. In addition, the growth inhibition call with S. aureus RN4220 is “inactive”.

For `CC(=O)O[C@H]1C[C@@]2(C)[C@@H](C[C@@H](O)[C@@H]3[C@@]4(C)CC[C@@H](O)[C@@H](C)[C@@H]4CC[C@@]32C)/C1=C(/CCC=C(C)C)C(=O)O`, the cytotoxicity call with HSkMC and with HepG2 was “inactive” in each case. The growth inhibition call in the assay with S. aureus RN4220 is “active”.

For the compound `Cc1cccc2sc(NC(=O)c3ccc(C(C)(C)C)cc3)nc12`, the cytotoxicity call in the assay with HSkMC and with HepG2 was “inactive” each time. Also, in the assay with S. aureus RN4220, the growth inhibition call is “inactive”.

Take `O=C(NC1=C(c2ccc(OC(F)(F)F)cc2)C(=O)c2ccccc2C1=O)c1ccc(Br)cc1`: the cytotoxicity call in the assay on HSkMC and in the assay with HepG2 was “inactive” in each case. Also, in the assay with S. aureus RN4220, the growth inhibition call was “inactive”.

Turning to `Cc1ccc(S(=O)(=O)Nc2ccc3c(c2)C(=O)N([C@H](C)CO)C[C@@H](C)[C@H](CN(C)Cc2ccc(C(F)(F)F)cc2)OCCCC[C@@H](C)O3)cc1`, the cytotoxicity call with HSkMC was “inactive”. The cytotoxicity call in the assay with HepG2 is “active”. Besides, the growth inhibition call in the assay with S. aureus RN4220 was “inactive”.

`C[C@@H]1CN([C@H](C)CO)C(=O)c2cc(NC(=O)Nc3ccccc3)ccc2O[C@@H]1CN(C)Cc1ccc(-c2ccccc2)cc1`: the cytotoxicity call in the assay on HSkMC is “inactive”. The cytotoxicity call in the assay with HepG2 is “active”. Also, the growth inhibition call in the assay with S. aureus RN4220 is “inactive”.

On to `C[C@@H]1CN([C@H](C)CO)C(=O)c2cc(NC(=O)CCCN(C)C)ccc2O[C@@H](C)CCCCO[C@@H]1CN(C)S(C)(=O)=O`, for which the cytotoxicity call in the assay on HSkMC and with HepG2 was “inactive” in each case. Moreover, the growth inhibition call with S. aureus RN4220 is “inactive”.

As to `O=C1NCc2ccccc21`, the cytotoxicity call in the assay on HSkMC and in the assay with HepG2 was “inactive” each time. The growth inhibition call in the assay on S. aureus RN4220 was “inactive”.

Turning to `C[C@H]1CN([C@@H](C)CO)C(=O)c2cc(NC(=O)C3CC3)ccc2O[C@@H]1CN(C)C(=O)NC1CCCCC1`, the cytotoxicity call in the assay with HSkMC and in the assay with HepG2 was “inactive” each time. Moreover, the growth inhibition call with S. aureus RN4220 was “inactive”.

Consider `O=C(C[C@@H]1CC[C@H]2[C@@H](COC[C@@H](O)CN2S(=O)(=O)c2ccccc2F)O1)NCc1ccccc1F`, for which the cytotoxicity call with HSkMC and in the assay with HepG2 was “inactive” in each case. Further, in the assay with S. aureus RN4220, the growth inhibition call is “inactive”.

Regarding `Cn1c(=O)c2[nH]cnc2n(C)c1=O`, the cytotoxicity call with HSkMC and in the assay on HepG2 was “inactive” in each case. In addition, the growth inhibition call in the assay on S. aureus RN4220 is “inactive”.

Regarding `CC(C)[C@@H]1CC[C@@H](C)CC1=O`, the cytotoxicity call with HSkMC and with HepG2 was “inactive” each time. Besides, the growth inhibition call in the assay with S. aureus RN4220 was “inactive”.

In the case of `Cc1noc(C)c1NC(=O)N(C)C[C@@H]1Oc2ccc(NS(=O)(=O)c3ccccc3)cc2C(=O)N([C@H](C)CO)C[C@H]1C`, the cytotoxicity call in the assay with HSkMC and with HepG2 was “inactive” in each case. For the same compound, the growth inhibition call with S. aureus RN4220 is “inactive”.

For `C[C@H]1CN([C@@H](C)CO)C(=O)c2cc(NC(=O)C3CC3)ccc2O[C@H]1CN(C)C(=O)Nc1ccc2c(c1)OCO2`, the cytotoxicity call with HSkMC and in the assay with HepG2 was “inactive” in each case. The growth inhibition call in the assay on S. aureus RN4220 is “inactive”.

With `Cc1ccc(S(=O)(=O)N(C)C[C@@H]2OCCCC[C@@H](C)Oc3ccc(NC(=O)CCCCCC(=O)Nc4ccccc4N)cc3C(=O)N([C@H](C)CO)C[C@@H]2C)cc1`, the cytotoxicity call in the assay with HSkMC and in the assay with HepG2 was “inactive” throughout. Moreover, in the assay on S. aureus RN4220, the growth inhibition call is “inactive”.

Take `Cc1cccc(S(=O)(=O)N2C[C@H](O)COC[C@H]3O[C@H](CC(=O)NCc4ccc5c(c4)OCO5)CC[C@@H]32)c1`: the cytotoxicity call in the assay on HSkMC and in the assay on HepG2 was “inactive” throughout. In the assay with S. aureus RN4220, the growth inhibition call was “inactive”.

Consider `COCC#Cc1ccc2c(c1)O[C@@H](CN(C)C(=O)c1ccccc1F)[C@@H](C)CN([C@H](C)CO)S2(=O)=O`, for which the cytotoxicity call with HSkMC and in the assay with HepG2 was “inactive” throughout. The growth inhibition call in the assay on S. aureus RN4220 is “inactive”.

For `C[C@H](CO)N1C[C@H](C)[C@H](CN(C)C(=O)Nc2ccc(F)cc2)Oc2c(NC(=O)c3ccc(-c4nccs4)cc3)cccc2C1=O`, the cytotoxicity call in the assay with HSkMC and in the assay with HepG2 was “inactive” throughout. In addition, the growth inhibition call in the assay with S. aureus RN4220 was “inactive”.

As to `Nc1ncnc2c1ncn2[C@H]1O[C@@H](CO)C[C@@H]1O`, the cytotoxicity call in the assay with HSkMC and with HepG2 was “inactive” throughout. Further, the growth inhibition call with S. aureus RN4220 was “inactive”.

On to `Cc1ccc(S(=O)(=O)Nc2ccc3c(c2)C(=O)N([C@H](C)CO)C[C@H](C)[C@@H](CN(C)C(=O)CCC(F)(F)F)OCCCC[C@H](C)O3)cc1`, for which the cytotoxicity call with HSkMC and in the assay with HepG2 was “inactive” throughout. For the same compound, the growth inhibition call in the assay with S. aureus RN4220 was “inactive”.

Take `COc1ccc(NC(=O)N(C)C[C@@H]2Oc3ccc(NS(=O)(=O)c4cn(C)cn4)cc3C(=O)N([C@@H](C)CO)C[C@@H]2C)cc1`: the cytotoxicity call with HSkMC and in the assay on HepG2 was “inactive” throughout. Moreover, the growth inhibition call in the assay with S. aureus RN4220 was “inactive”.

`COc1ccc(NC(=O)N(C)C[C@@H]2Oc3ncc(C#C[C@@H](C)O)cc3C(=O)N([C@H](C)CO)C[C@@H]2C)cc1`: the cytotoxicity call with HSkMC and in the assay on HepG2 was “inactive” throughout. In the assay with S. aureus RN4220, the growth inhibition call was “inactive”.

For the compound `C[C@@H]1CCCCO[C@@H](CN(C)Cc2ccc(Cl)c(Cl)c2)[C@H](C)CN([C@@H](C)CO)C(=O)c2cc(NS(C)(=O)=O)ccc2O1`, the cytotoxicity call in the assay on HSkMC and in the assay on HepG2 was “inactive” throughout. Further, in the assay with S. aureus RN4220, the growth inhibition call was “inactive”.

Take `Cc1ccc(S(=O)(=O)Nc2ccc3c(c2)C(=O)N([C@H](C)CO)C[C@H](C)[C@@H](CN(C)S(=O)(=O)c2ccccc2)O3)cc1`: the cytotoxicity call in the assay on HSkMC (human skeletal muscle cells) and in the assay with HepG2 was “inactive” throughout. Moreover, the growth inhibition call with S. aureus RN4220 is “inactive”.

These data come from the antibiotic and cytotoxicity screens of Wong et al. (2023).
